Our source for the AUC and IC50 values is the supplement of paper PMC4967469.

Lines with a small IC50 respond at low doses; where the fit passes the top or lowest dose, that dose stands as a limit. The AUC spans the tested range (256-fold, ending at the top dose) of the same fit; the more sensitive the line, the further below 1.

Compound in the test: NC1(c2ccc(-c3nc4ccn5c(=O)[nH]nc5c4cc3-c3ccccc3)cc2)CCC1 [MK-2206]
The experiment in a line: Viability of human cancer cell lines after 72 h of drug (GDSC screen). The protocol: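 Human cancer cell lines in 384-well plates, medium with 10% serum, drug for 72 h over a 256-fold dose range (nine 2-fold or five 4-fold steps up to the top dose). Adherent lines were fixed and stained with the nucleic acid dye Syto60, suspension lines read with resazurin; signal relative to control wells, capped at 0 and 100%. One two-parameter sigmoid per drug and line, fitted in a mixed model over all curves with the slope shared within a line.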

Broadly, the IC50 is the concentration at which inhibition is half-maximal. As for “CAL-51 (breast, adherent, top dose 4 µM)”, the AUC came out at 0.939 and the IC50 is greater than 4 µM.

Consider “CAL-54 (kidney, adherent, top dose 2 µM)”, for which the AUC was 0.769 and the IC50 is 0.865 µM.

As to “CAL-62 (thyroid, adherent, top dose 4 µM)”, the AUC worked out at 0.966 and the IC50 is greater than 4 µM.

Take “CAL-72 (osteosarcoma, adherent, top dose 4 µM)”: the AUC came out at 0.952 and the IC50 was greater than 4 µM.

In the case of “CAL-78 (chondrosarcoma, adherent, top dose 4 µM)”, the AUC came out at 0.862 and the IC50 was greater than 4 µM.

On to “CAL-85-1 (breast, adherent, top dose 4 µM)”, for which the AUC was 0.925 and the IC50 is greater than 4 µM.

With “CAL-120 (breast, adherent, top dose 4 µM)”, the AUC was determined as 0.904 and the IC50 is greater than 4 µM.

For the cell line “CAPAN-1 (pancreas, adherent, top dose 4 µM)”, the AUC came to 0.869 and the IC50 is greater than 4 µM.

As for CAS-1 (glioma, adherent, top dose 4 µM), the AUC was found to be 0.919 and the IC50 was greater than 4 µM.

For the cell line “CCF-STTG1 (glioma, adherent, top dose 4 µM)”, the AUC came out at 0.851 and the IC50 came out at 3.08 µM.

As to “CCK-81 (large intestine, adherent, top dose 4 µM)”, the AUC was determined as 0.835 and the IC50 was determined as 2.41 µM.

As to “CCRF-CEM (lymphoblastic leukaemia, suspension, top dose 4 µM)”, the AUC was determined as 0.383 and the IC50 stood at 0.126 µM.

“CESS (acute myeloid leukaemia, suspension, top dose 4 µM)”: the AUC was 0.978 and the IC50 is greater than 4 µM.

Regarding “CGTH-W-1 (thyroid, adherent, top dose 4 µM)”, the AUC is 0.858 and the IC50 was found to be 3.24 µM.

Regarding “CHL-1 (melanoma, adherent, top dose 4 µM)”, the AUC came out at 0.909 and the IC50 is greater than 4 µM.

As for “CHP-126 (neuroblastoma, suspension, top dose 4 µM)”, the AUC was 0.938 and the IC50 was greater than 4 µM.

On to “CHP-134 (neuroblastoma, suspension, top dose 4 µM)”, for which the AUC is 0.92 and the IC50 is greater than 4 µM.

As for “CHP-212 (neuroblastoma, adherent, top dose 4 µM)”, the AUC is 0.754 and the IC50 was 1.26 µM.

For “CHSA0011 (chondrosarcoma, adherent, top dose 4 µM)”, the AUC came to 0.771 and the IC50 was determined as 2.18 µM.

For “CHSA0108 (chondrosarcoma, adherent, top dose 4 µM)”, the AUC was found to be 0.828 and the half-inhibitory concentration (IC50) worked out at 3 µM.

For “CHSA8926 (chondrosarcoma, adherent, top dose 4 µM)”, the AUC stood at 0.827 and the IC50 was greater than 4 µM.

With “CL-11 (large intestine, adherent, top dose 4 µM)”, the AUC was 0.856 and the IC50 came to 3.88 µM.

For “CL-34 (large intestine, adherent, top dose 4 µM)”, the AUC was determined as 0.898 and the IC50 was greater than 4 µM.

With “CL-40 (large intestine, adherent, top dose 4 µM)”, the AUC came to 0.863 and the IC50 is greater than 4 µM.

Regarding “CMK (acute myeloid leukaemia, suspension, top dose 4 µM)”, the AUC turned out to be 0.991 and the IC50 was greater than 4 µM.

As for “CML-T1 (chronic myeloid leukaemia, suspension, top dose 4 µM)”, the AUC was 0.925 and the IC50 is greater than 4 µM.

For “COLO-205 (large intestine, suspension, top dose 4 µM)”, the AUC is 0.848 and the IC50 stood at 2.91 µM.

As to “COLO-320-HSR (large intestine, suspension, top dose 4 µM)”, the AUC is 0.876 and the IC50 is 3.07 µM.

Regarding “COLO-668 (small cell lung carcinoma, adherent, top dose 4 µM)”, the AUC was found to be 0.962 and the IC50 is greater than 4 µM.

For the cell line “COLO-678 (large intestine, semi-adherent, top dose 4 µM)”, the AUC stood at 0.98 and the IC50 is greater than 4 µM.

With “COLO-679 (melanoma, adherent, top dose 4 µM)”, the AUC amounted to 0.964 and the IC50 is greater than 4 µM.

Take “COLO-680N (oesophagus, adherent, top dose 4 µM)”: the AUC was determined as 0.967 and the IC50 is greater than 4 µM.

For “COLO-684 (endometrium, suspension, top dose 4 µM)”, the AUC amounted to 0.563 and the IC50 was 0.381 µM.

Take “COLO-783 (melanoma, adherent, top dose 4 µM)”: the AUC turned out to be 0.931 and the IC50 is greater than 4 µM.

Turning to “COLO-800 (melanoma, adherent, top dose 4 µM)”, the AUC turned out to be 0.889 and the IC50 is greater than 4 µM.

Take “COLO-824 (breast, adherent, top dose 4 µM)”: the AUC was 0.966 and the IC50 was greater than 4 µM.

Regarding “COR-L23 (large cell lung carcinoma, adherent, top dose 4 µM)”, the AUC was 0.928 and the IC50 is greater than 4 µM.

Take “COR-L88 (small cell lung carcinoma, adherent, top dose 4 µM)”: the AUC stood at 0.986 and the IC50 is greater than 4 µM.

For the cell line “COR-L95 (small cell lung carcinoma, adherent, top dose 4 µM)”, the AUC turned out to be 0.848 and the IC50 was found to be 3.71 µM.

Regarding “COR-L279 (small cell lung carcinoma, suspension, top dose 4 µM)”, the AUC stood at 0.981 and the IC50 is greater than 4 µM.

As to “COR-L321 (lung, suspension, top dose 4 µM)”, the AUC turned out to be 0.989 and the IC50 was greater than 4 µM.

With “CP50-MEL-B (melanoma, adherent, top dose 4 µM)”, the AUC amounted to 0.978 and the IC50 is greater than 4 µM.

For the cell line “CP66-MEL (melanoma, adherent, top dose 4 µM)”, the AUC worked out at 0.841 and the IC50 amounted to 3.36 µM.

For the cell line “CPC-N (small cell lung carcinoma, suspension, top dose 4 µM)”, the AUC came to 0.911 and the IC50 was greater than 4 µM.

With “CRO-AP2 (B-cell lymphoma, suspension, top dose 4 µM)”, the AUC turned out to be 0.499 and the IC50 amounted to 0.249 µM.

Take CS1 (bone, adherent, top dose 4 µM): the AUC was 0.81 and the IC50 is 2.4 µM.

For “CTB-1 (B-cell lymphoma, suspension, top dose 4 µM)”, the AUC was 0.803 and the IC50 was 2.89 µM.

As for “CTV-1 (acute myeloid leukaemia, suspension, top dose 4 µM)”, the AUC was 0.858 and the IC50 is 2.31 µM.

With “CW-2 (large intestine, adherent, top dose 4 µM)”, the AUC is 0.953 and the IC50 was greater than 4 µM.

Regarding “Ca9-22 (head and neck, adherent, top dose 4 µM)”, the AUC turned out to be 0.981 and the IC50 was greater than 4 µM.

As for “Ca-Ski (cervix, adherent, top dose 4 µM)”, the AUC was determined as 0.704 and the IC50 was found to be 1.01 µM.

Consider “CaR-1 (large intestine, adherent, top dose 4 µM)”, for which the AUC came to 0.938 and the IC50 is greater than 4 µM.

For the cell line “Calu-3 (lung adenocarcinoma, adherent, top dose 4 µM)”, the AUC worked out at 0.856 and the IC50 is greater than 4 µM.

Turning to “Calu-6 (lung adenocarcinoma, adherent, top dose 4 µM)”, the AUC was found to be 0.958 and the IC50 is greater than 4 µM.

Take Caov-4 (ovary, adherent, top dose 4 µM): the AUC was determined as 0.829 and the IC50 was greater than 4 µM.

On to “Capan-2 (pancreas, adherent, top dose 4 µM)”, for which the AUC stood at 0.976 and the IC50 was greater than 4 µM.

Regarding “ChaGo-K-1 (non-small cell lung carcinoma, adherent, top dose 4 µM)”, the AUC was 0.934 and the IC50 is greater than 4 µM.

As for “D-247MG (glioma, adherent, top dose 4 µM)”, the AUC was 0.9 and the IC50 is greater than 4 µM.

“D-263MG (glioma, adherent, top dose 4 µM)”: the AUC is 0.846 and the half-inhibitory concentration (IC50) amounted to 3.9 µM.

As to “D-283MED (medulloblastoma, adherent, top dose 4 µM)”, the AUC worked out at 0.89 and the IC50 came out at 3.92 µM.

With “D-392MG (glioma, adherent, top dose 4 µM)”, the AUC was found to be 0.969 and the half-maximal inhibitory concentration (IC50) is greater than 4 µM.

Turning to “D-423MG (glioma, adherent, top dose 4 µM)”, the AUC worked out at 0.811 and the IC50 is 2.72 µM.

As for “D-502MG (glioma, adherent, top dose 4 µM)”, the AUC is 0.842 and the IC50 is greater than 4 µM.

Consider “D-542MG (glioma, adherent, top dose 4 µM)”, for which the AUC was 0.845 and the IC50 stood at 3.92 µM.

As to “D-566MG (glioma, adherent, top dose 4 µM)”, the AUC worked out at 0.922 and the concentration for half-maximal inhibition (IC50) was greater than 4 µM.

On to “DAN-G (pancreas, adherent, top dose 4 µM)”, for which the AUC worked out at 0.953 and the IC50 is greater than 4 µM.

For “DB (B-cell lymphoma, suspension, top dose 4 µM)”, the AUC came out at 0.94 and the IC50 is greater than 4 µM.
